The results in this text go back to the supplement of paper PMC6609913.

Structures can show the parent of a compound that is named as a salt. ± gives the standard deviation of the averaged measurements. Over roughly 1,300 compounds, “normalised cell viability” has its median near 1; the lowest 2% begin near 0.15. The list shows a part of the results.

The test has as its system V-C8 + BRCA2 (BRCA2-proficient hamster cells). Put plainly: normalised cell viability (fraction of plate median); higher = more viable cells (less toxic). Particulars: 5 µM. The method, boiled down: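 In two screens, library drugs at 5 μM were given for 3 days (screen 1) or 6 days (screen 2) to hamster V-C8 cells without BRCA2 and V-C8 cells with BRCA2 restored, seeded 24 h earlier in 96-well plates. A resazurin assay gave the cell viability readout, expressed as modified robust per cent of sample against the plate median, with triplicate wells averaged.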

Turning to `Nc1c2ccccc2nc2ccccc12` [Aminacrine], the normalised cell viability came to 0.139 ± 0.0043 (treatment time: 3 days) and 0.156 ± 0.024 (treatment time: 6 days).
Regarding `C[C@H](CCC(=O)O)[C@H]1CC[C@H]2[C@@H]3[C@@H](O)C[C@@H]4C[C@H](O)CC[C@]4(C)[C@H]3CC[C@]12C` [Urosiol], the normalised cell viability by setting is: (treatment time: 3 days) 0.901 ± 0.091; (treatment time: 6 days) 0.899 ± 0.04.
Turning to `C#C[C@]1(O)CC[C@H]2[C@@H]3CCC4=CCCC[C@@H]4[C@H]3CC[C@@]21C` [Lynestrenol], the normalised cell viability is 1.11 ± 0.072 (treatment time: 3 days) and 1.01 ± 0.12 (treatment time: 6 days).
In the same order, the values of `O=C(CCCN1CCN(c2ccccn2)CC1)c1ccc(F)cc1` [Azaperone] are 1.1 ± 0.34 and 0.902 ± 0.052.
The matching figures for `NC[C@@H]1O[C@@H](O[C@H]2[C@H](O)[C@@H](O[C@H]3O[C@H](CO)[C@@H](O)[C@H](N)[C@H]3O)[C@H](N)C[C@@H]2N)[C@@H](O)[C@H](O)[C@H]1O` [Kanamycin A sulfate]: 0.883 ± 0.056 and 1.04 ± 0.053.
The matching figures for `COC(=O)C1=C(C#N)NC(C)=C(C(=O)OC(C)C)C1c1cccc([N+](=O)[O-])c1` (stereo not drawn) [Nilvadipine]: 0.996 ± 0.018 and 1.11 ± 0.032.
Regarding `CC1CC(OC(=O)c2ccccc2O)CC(C)(C)C1` (stereo not drawn) [Homosalate], the normalised cell viability was determined as 1.03 ± 0.04 (treatment time: 3 days) and 1.02 ± 0.074 (treatment time: 6 days).
The matching figures for `Nc1c2c(nc3ccccc13)CCCC2` [Tacrine hydrochloride]: 0.905 ± 0.038 and 1.09 ± 0.014.
In the same order, the values of `CCN(CC)C(=S)SSC(=S)N(CC)CC` [Disulfiram] are 0.946 ± 0.031 and 0.939 ± 0.022.
Regarding `C/C(=C(\CCOP(=O)(O)O)SC(=O)c1ccccc1)N(C=O)Cc1cnc(C)nc1N` [Benfotiamine], the normalised cell viability is, setting by setting: (treatment time: 3 days) 1.01 ± 0.02; (treatment time: 6 days) 1.04 ± 0.016.
In the same order, the values of `CC1(C)O[C@@H]2C[C@H]3[C@@H]4CCC5=CC(=O)C=C[C@]5(C)[C@H]4[C@@H](O)C[C@]3(C)[C@]2(C(=O)CO)O1` [Desonide] are 0.965 ± 0.092 and 0.953 ± 0.025.
The matching figures for `CC[C@H]1OC(=O)C[C@@H](O)[C@H](C)[C@@H](O[C@@H]2O[C@H](C)[C@@H](O[C@H]3C[C@@](C)(O)[C@@H](O)[C@H](C)O3)[C@H](N(C)C)[C@H]2O)[C@@H](CC=O)C[C@@H](C)C(=O)/C=C/C(C)=C/[C@@H]1CO[C@@H]1O[C@H](C)[C@@H](O)[C@@H](OC)[C@H]1OC` [Tylosin]: 1.07 ± 0.015 and 0.7 ± 0.08.
For the compound `O=C(CCCCCCC(=O)Nc1ccccc1)NO` [Vorinostat], the normalised cell viability is, setting by setting: (treatment time: 3 days) 0.132 ± 0.0091; (treatment time: 6 days) 0.17 ± 0.021.
Regarding `COC(=O)C1=C(C)NC(C)=C(C(=O)OC2CCCN(Cc3ccccc3)C2)C1c1cccc([N+](=O)[O-])c1` (stereo not drawn) [Benidipine hydrochloride], the normalised cell viability is, setting by setting: (treatment time: 3 days) 0.988 ± 0.065; (treatment time: 6 days) 0.97 ± 0.04.
Turning to `C[C@]12C[C@H](O)[C@H]3[C@@H](CCC4=CC(=O)CC[C@@]43C)[C@@H]1CC[C@@H]2C(=O)CO` [Corticosterone], the normalised cell viability was 1.09 ± 0.064 (treatment time: 3 days) and 1.028 ± 0.0075 (treatment time: 6 days).
Regarding `CC1(C)S[C@@H]2[C@H](NC(=O)[C@H](C(=O)O)c3ccsc3)C(=O)N2[C@H]1C(=O)O` [Ticarcillin sodium], the normalised cell viability (treatment time: 3 days) is 1.02 ± 0.021 and the normalised cell viability (treatment time: 6 days) was found to be 1.04 ± 0.097.
Turning to `CN[C@@H]1[C@@H](O)[C@@H](O[C@@H]2[C@@H](O)[C@H](O[C@H]3OC(CN)=CC[C@H]3N)[C@@H](N)C[C@H]2N)OC[C@]1(C)O` [Sisomicin sulfate], the normalised cell viability reads like this: (treatment time: 3 days) 0.292 ± 0.013; (treatment time: 6 days) 0.348 ± 0.033.
In the same order, the values of `Cc1cc(NS(=O)(=O)c2ccc(N)cc2)no1` [Sulfamethoxazole] are 0.976 ± 0.035 and 0.981 ± 0.025.
In the same order, the values of `O=C1CN(/N=C/c2ccc(-c3ccc([N+](=O)[O-])cc3)o2)C(=O)N1` [Dantrolene sodium salt] are 1.01 ± 0.023 and 1.06 ± 0.034.
In the same order, the values of `CCOC(=O)n1ccn(C)c1=S` [Carbimazole] are 0.926 ± 0.024 and 0.895 ± 0.017.
On to `C[C@H](N)[C@H](O)c1cccc(O)c1` [Metaraminol bitartrate], for which the normalised cell viability was found to be 1.093 ± 0.01 (treatment time: 3 days) and 1.07 ± 0.053 (treatment time: 6 days).
For `CCN(CC)CCOC(=O)C(Cc1cccc2ccccc12)CC1CCCO1` (stereo not drawn) [Nafronyl oxalate], the normalised cell viability reads like this: (treatment time: 3 days) 0.237 ± 0.025; (treatment time: 6 days) 0.295 ± 0.0076.
In the same order, the values of `Cc1ccccc1OCC(O)CO` (stereo not drawn) [Mephenesin] are 0.995 ± 0.014 and 1.03 ± 0.037.
In the same order, the values of `O=C1CN(/N=C/c2ccc([N+](=O)[O-])o2)C(=O)N1` [Nitrofurantoin] are 0.979 ± 0.043 and 0.954 ± 0.043.
The matching figures for `CCCC1O[C@@H]2C[C@H]3[C@@H]4CCC5=CC(=O)C=C[C@]5(C)[C@H]4[C@@H](O)C[C@]3(C)[C@]2(C(=O)CO)O1` (stereo partly drawn) [Budesonide]: 0.9516 ± 0.0071 and 0.936 ± 0.024.
With `Nc1nc2c(ncn2COCCO)c(=O)[nH]1` [Acyclovir], the normalised cell viability reads like this: (treatment time: 3 days) 0.938 ± 0.031; (treatment time: 6 days) 1.01 ± 0.036.
For `CCCCCN(CCCCC)C(=O)C(CCC(=O)O)NC(=O)c1ccc(Cl)c(Cl)c1` (stereo not drawn) [Lorglumide sodium salt], the normalised cell viability was 1 ± 0.032 (treatment time: 3 days) and 1.04 ± 0.015 (treatment time: 6 days).
The matching figures for `CC(C)(C)NC(=O)[C@@H]1C[C@@H]2CCCC[C@@H]2CN1C[C@@H](O)[C@H](Cc1ccccc1)NC(=O)[C@H](CC(N)=O)NC(=O)c1ccc2ccccc2n1` [Saquinavir mesylate]: 0.842 ± 0.061 and 0.952 ± 0.073.
In the same order, the values of `COc1ncnc(NS(=O)(=O)c2ccc(N)cc2)c1OC` [Sulfadoxine] are 0.966 ± 0.088 and 0.99 ± 0.027.
Consider `CC(=O)OCC(=O)[C@@]1(O)[C@H](C)C[C@H]2[C@@H]3CCC4=CC(=O)C=C[C@]4(C)[C@@]3(F)[C@@H](O)C[C@@]21C` [Dexamethasone acetate], for which the normalised cell viability is, setting by setting: (treatment time: 3 days) 1.08 ± 0.057; (treatment time: 6 days) 1.02 ± 0.056.
Turning to `COc1ccc(C(=O)c2ccccc2)c(O)c1` [Oxybenzone], the normalised cell viability is 0.942 ± 0.082 (treatment time: 3 days) and 0.976 ± 0.033 (treatment time: 6 days).
In the case of `COc1c(N2C[C@@H]3CCCN[C@@H]3C2)c(F)cc2c(=O)c(C(=O)O)cn(C3CC3)c12` [Moxifloxacin], the normalised cell viability is 1.01 ± 0.11 (treatment time: 3 days) and 1.01 ± 0.093 (treatment time: 6 days).
In the same order, the values of `COc1ccc(C(=O)CC(=O)c2ccc(C(C)(C)C)cc2)cc1` [Avobenzone] are 1.02 ± 0.057 and 1.04 ± 0.12.
In the same order, the values of `CCOC(=O)C1=C(C)NC(C)=C(C(=O)OCC)C1c1ccccc1/C=C/C(=O)OC(C)(C)C` [Lacidipine] are 1.09 ± 0.018 and 1.04 ± 0.083.
As to `CCOc1cc(CC(=O)N[C@@H](CC(C)C)c2ccccc2N2CCCCC2)ccc1C(=O)O` [Repaglinide], the normalised cell viability runs as follows: (treatment time: 3 days) 0.966 ± 0.053; (treatment time: 6 days) 0.99 ± 0.073.
In the case of `C#C[C@]1(O)CC[C@H]2[C@@H]3CCc4cc(O)ccc4[C@H]3CC[C@@]21C` [Ethinylestradiol], the normalised cell viability worked out at 0.996 ± 0.036 (treatment time: 3 days) and 1.06 ± 0.13 (treatment time: 6 days).
Take `CCCCN(CCCC)CCC(O)c1cc2c(Cl)cc(Cl)cc2c2cc(C(F)(F)F)ccc12` (stereo not drawn) [Halofantrine hydrochloride]: the normalised cell viability reads like this: (treatment time: 3 days) 0.849 ± 0.027; (treatment time: 6 days) 0.93 ± 0.027.
In the same order, the values of `C[C@@H](O)[C@H]1C(=O)N2C(C(=O)O)=C(S[C@@H]3CN[C@H](C(=O)N(C)C)C3)[C@H](C)[C@H]12` [Meropenem] are 1.02 ± 0.037 and 1.04 ± 0.053.
The matching figures for `CC(=O)O[C@H]1C[C@@H]2CC[C@@H]3[C@H](CC[C@@]4(C)[C@H]3C[C@H]([N+]3(C)CCCCC3)[C@@H]4OC(C)=O)[C@@]2(C)C[C@@H]1N1CCCCC1` [Vecuronium bromide]: 1.03 ± 0.025 and 1.03 ± 0.086.
